Source: patent publication US20240408055A1 (priority 2021, published 2024)

Molecular target: T1, human Neuropilin-1 (NRP1) receptor (Homo sapiens, UniProt O14786)
T1 construct: purchased Elabscience
T1 sequence (O14786 22-641 limits assumed): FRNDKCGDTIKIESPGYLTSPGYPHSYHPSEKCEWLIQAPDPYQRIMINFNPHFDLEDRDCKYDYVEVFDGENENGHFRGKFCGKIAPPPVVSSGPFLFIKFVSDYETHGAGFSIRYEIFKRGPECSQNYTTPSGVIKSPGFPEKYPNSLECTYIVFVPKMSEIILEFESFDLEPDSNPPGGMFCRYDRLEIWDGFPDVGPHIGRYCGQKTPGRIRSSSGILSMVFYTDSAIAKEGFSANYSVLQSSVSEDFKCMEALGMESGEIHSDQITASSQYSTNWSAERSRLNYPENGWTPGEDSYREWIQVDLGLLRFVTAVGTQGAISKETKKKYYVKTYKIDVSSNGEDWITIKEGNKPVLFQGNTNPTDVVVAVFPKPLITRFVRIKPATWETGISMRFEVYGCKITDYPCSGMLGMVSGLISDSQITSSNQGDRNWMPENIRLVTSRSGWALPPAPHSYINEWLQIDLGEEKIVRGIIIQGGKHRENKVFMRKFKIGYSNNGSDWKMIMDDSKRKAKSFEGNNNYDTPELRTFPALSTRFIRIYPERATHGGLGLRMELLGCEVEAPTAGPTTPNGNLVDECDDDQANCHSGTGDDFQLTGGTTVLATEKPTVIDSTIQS

## C=C1C(=O)OC2/C=C(/C)CC/C=C(\C(=O)O)CC/C=C(\C)CCC12 (stereo not shown) [Anisomelic acid]
  EC50: ~27.5 µM
